Laboratory results as given in publication PMC10726135.
The other results are listed elsewhere or left out. At the low end of the ranking the order means little. The protein was read in a cell extract, so binding may be indirect.

Target: T1, HNF4alpha8 (COS-7 nuclear extract) (UniProt P41235-5)
T1 sequence: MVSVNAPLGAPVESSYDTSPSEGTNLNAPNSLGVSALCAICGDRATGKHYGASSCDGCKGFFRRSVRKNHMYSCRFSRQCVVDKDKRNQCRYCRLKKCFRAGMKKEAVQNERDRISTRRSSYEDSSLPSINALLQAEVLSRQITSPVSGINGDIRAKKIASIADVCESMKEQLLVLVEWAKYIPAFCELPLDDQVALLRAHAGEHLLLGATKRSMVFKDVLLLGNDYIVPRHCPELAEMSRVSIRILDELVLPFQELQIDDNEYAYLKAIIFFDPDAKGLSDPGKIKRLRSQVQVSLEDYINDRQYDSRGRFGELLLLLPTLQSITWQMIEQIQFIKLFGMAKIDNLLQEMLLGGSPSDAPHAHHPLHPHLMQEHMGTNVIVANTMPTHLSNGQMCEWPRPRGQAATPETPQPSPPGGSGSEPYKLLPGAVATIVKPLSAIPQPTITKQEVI
Assay: protein-binding microarray
Conditions: COS-7 nuclear extract on double-stranded Agilent 4x180k PBM; binding buffer, salt, pH and temperature not given; high values mean tight binding; double strand, one strand shown; sequences stand for … in …GCCTAGGGAGATTAGAGTATCGGTCGA

Sequence	binding signal (log2 normalized intensity)
TGGAATTTGAACCTACACCTATGTGGTCAA	3.09
TTTTCTATTTCCACTGAGGTCAAGATAAGA	1.52
GCTCATTCCCTAGGGCTCGGCATTCAGACA	-1.32
TAACCTGCTCTCTCATGCCCTTTGCCTCCC	5.01
TCCAGACTTTGTACAAGGGCACTAGCTCTT	0.395
TTAGTTCTTTGTAGGAAGGCTTTGAAGTCT	0.157
ATTCCTACTAATTTTGTTTCCTAGTTCAAA	0.156
GAGGAGGCCTTTCCTGACCCCTCCTCCCCC	5.72
GTGGATATTGGGAGGCCCATTGTGCTGGGG	0.52
TTTGATGGACATTGCTGGTGGTGGTAGATC	1.45
GCCAGGCAGGACAGTTTTGTGTGTTTAATG	0.878
AGCCCTGTTGACATCTTGATTTAGCCCAGT	0.0235
CCAAACTGGTTTCTCCGCTCGGGGAGGTGC	-1.2
CCATTGTATGAGGGTGAAGTTTGGCAATTA	0.417
TCTGACCCATTCCTTCTCACCGGGTGGAGC	0.533
ATCATCTACTATGTGCCAGACACTGCTCTA	-1.3
GGAGGTTCTTGTTTAATTCTTTTCAACTGG	1.25
CGCCAGCGCCCCCGTGTGGCCGCGAGCACC	2.86
AGTATATTGGCTTGGCTGTGTCCCTTGACC	3.67
ACTGGGGATAGAATCAAAGGTCAGGAATCG	4.02
CGGTCAGCTGCTTGACTTAGTACATGGCCT	0.903
AACTGGGGGCATAGCCCATGCAAATACTCG	-1.43
ATGGCCAGCCTTTGGACTTTGAACTGCAAC	10.1
GAGATCAGGATACCAAGGCTCAGAGGTCAA	4.27
AGGACCTGACATTCTCCACTTGGTGACTGT	-0.319

Sequence	binding signal (log2 normalized intensity)
CTTTCAGCCTCTCTGCAAACATTTATTTTG	-0.117
GAGATCAGGTCTCTTTTATGTACCACCGTA	1.34
GAGGGTAACAATGCTGATGGGGACCACAGA	-1.43
GTCGACCTTTAAACGTTTGCTGGATCAGCA	2.6
ATAGCTCAGGTCCAAGGAACCTCACGCGCT	-1.26
TTTGAAGGTTAAAGTCCATTTTTGAGGACC	6.47
TTATGATATGAAGCATTGCTTGAGTCACTT	0.112
TGCTGTGTGTGTGTGTGTGTGTGTGTGTGT	3.44
CAAGTGCCAACAAACTCAATCCTGGCCTCT	-0.0333
ATGCAACCTTTGTCCTCATTGAGCCCTCCC	4.19
GGTGAAGGATGGAATGCTGAAGGGAAGGCT	-1.13
GAAGTACAACTTCAGCAATGAAAGATGTTT	-1.01
TAAGCAAACATTCCTCCCTCCCTCTTCCCT	2.71
GGTGAGGGTGAGGGTGAGGGTTAGGGGTTA	1.07
AATAATTTGAAGTTTAGAGATGCCTATAGG	0.0674
CAGTGCTGACCTACCTGACCTGGCATACTA	0.335
GAAGAAGTCATCCATCATTCATACATTTGC	-0.417
AACAATGCAAGATAAAAGTGAGCAATGCTG	-1.33
GCAGGCAGAGGAACAGAGGGGTCTGAGCAC	-1.19
CCCACAGTGCATCTGATAAGGTTGTTAAGT	0.889
TCCAAAGCCTCATCTGAGATAAGGCAAGTC	-1.38
GTCCAAGTTGGTGAGAACAGAGTCTCCGAG	-0.509
ATTTGTGAAGGTGAATTTCAAGAATCTAAT	-1.43
AAGGGATCAGAAATTGATTTGTAACCTGCA	1.09
TGGAGTTAGCTGTCTTTCTGATAAGATTGG	1.02

Sequence	binding signal (log2 normalized intensity)
GCTGCCAAGCGTCAGTCATACAGAGCTGTC	-1.41
GTCACAGCCTGGTTCTTGTAGGCCCCTGTG	1.21
CCATTTTGGACTTTGACCTCCAAAATTATA	10.9
TTCTCTCAACCTCTCTGGGGGATGGGTCCA	3.21
AAAGGGAATTTTGGACAAGGTAACCCCCAA	4.01
GGCCCTTTGCAGCCCGAGCTGCTGGAACAG	-1.32
CAAAGTTCAAGGTCCAGCCTACCCACCCAC	4.96
GGACTTTTTTTTGCCTAACTGCTGCATGTC	0.235
ACCAAAACACTTGTGTCAACCGTGTCAACA	-1.2
GGGCTATTGACAAAGACCAGTGCTCTTTCT	-1.16
GGAGTGACCCTGGGAGCAAAGGTCAAGAGT	7.55
TATGAAATCTTATCAGAAGCTTACATATCA	-1.02
AAAGTCCACCGTGGTGTAGAGGCCCTGCAG	-0.136
CCGCACCCAGCTTTCATCTCGGCTGGCTAC	-1.35
TACCATGGGAGACCTCAGGGGTCATCAGAT	3.08
GCCTTTCTAGAACCAGAATTCCAGAGAAGC	-1.4
TTGTAGCCAAACTCACAGCTTTTATGTCAA	-0.853
TACTAACTGGACTTTATCTACCATTAGTCT	2.25
GAACCGTGATTATCATCTTTTACTTAGCAA	-1.24
GAGCTGGCGGCGCGGCCGGAGCGGCGGACC	-1.26
TCCAACCTGTTCTTTTGAGCTGTGGTTAAG	1.73
AGTATCCAGCTCCTCTTCACACCATGCTCT	-1.29
TTAAGTTGACTCCAATGCTCGTTGACCATT	2.4
ACCCTCTCTGGATGCAGGTCGCCGGGAAAA	0.74
CATCGGACTTTGATCTGCCACATACCTTTA	5.04

Sequence	binding signal (log2 normalized intensity)
TGAGACTTCCCAGCTGCTGGTCAAAGGGCA	6.21
CGCTCCCAGAAGCCTCCGGTGTACCTCGCT	-1.31
TCCTATCCTAGGGTTAAAGTCTACAACCAG	3.97
TTACTCATTCCCAGGTCGGGCCGGAGAGGC	0.864
GAGTTTAGAATTTGAACTATGGTCATCTGA	3.35
GTGGAGGCCAGCGCCAGGCTGGGGGCAGAG	-1.37
GTCTGCCTGACTCCAGAGTCCAAACTGGGA	3.18
CACTGCAAATGATGTCTCTCATTGGAATGA	0.57
GCAGAGTCCTGGGGAGGGTAAGCATGCTTG	-1.02
TGCTAATGTCCTTTGGAGTGCTTTCATCTT	1.63
GTGGGTGGGAAAGGGTGCTCCAGGCAAAGG	-0.586
TGTTCCTCTGCCCCTCATCGAGGCCATCCC	2.65
GGGTAAAACCAAACTGCAGCTGCTGCACTG	-1.28
CTGCACACACTCACAGAACACAGTGTTTGC	-1.26
TCCTGGCAGTGTGGAAAAGCTGGCTGGCGG	-1.34
GGTGACCCCTCAGTTTTTCTCTTTTGACCT	4.77
TACTGACTAAAGGTTAAACATGTACTCTGT	3.1
TTTGATAGGTGGTCTGTTTGTGAAACAGTG	1.79
CCGAGGTCCTGGGGCGATGCTTCCAAAGTC	-1.34
ACTCTGGGGCAATAACCCTAGACACCGGGT	-1.32
TCATTATCTTCAGTCTAGAATCTGCAGCCC	0.96
TCGCCGTGTGACTGAGGGCTGACATGTCTT	0.63
AGCTCTAAACCACCCAATCCTGCAGCATTC	-1.42
ACATTTCAGTATGAATGCCTTGGCCTCTGC	1.31
GGTTGGCACGCTTAGGGAACAAAGGTCAGT	7.22

Sequence	binding signal (log2 normalized intensity)
TCTAGATGGGGTTGAGCAGACTAAAGGACT	-0.482
TGGCTGGCGGCTAGTGTACAGGTGACCTTT	7.84
GAACTGTAACCTCAAAGGAGGTCAGAACTG	1.35
GGACGAAGGTCACTAATTGGAAGCTCTTTC	1.52
TGCCTGGCATCTAACCTTCGTCCTTGCCCC	4.15
AAGAAGGCAGACTCAAGATAGAGGGCTGCC	-1.35
GTGTTCGCCCCTAGGACACGCAGTTGGAGA	-0.708
AAGGTTATTTGCTCACCAGTGACCAATAAT	0.582
TGCCCTCTGGTGGCACACAGAGGACGTCAG	0.732
AAAAGCCCTAGTTTTTCTTCCGGTCACATA	1.45
CAAGCCTAGTTTTGATTATCACTACTCCTC	-0.964
CACAGCTCGACCTTTGACCTTCGGCTTCCC	9.06
AACAAAAGCAGAGGAGTGGCCATGATGCCA	-0.86
GGGCAAAGTCAGGTACTGGTAGCCTGGGCC	-1.11
GCCCAAAGGTCACCTCTTCAGATAGCCTTT	3.23
GGGCAGGTGAGAGGGCTCTGTCTGCTGGGC	-1.38
GTATACTATTTGCTAATGTCCTTTGGAGTG	2.41
CAGGCCATCACACTCCTACCCATTCTTCAG	-1.19
CTCTCAGGTCAAAGTTTGCCTTGACCTCTA	5.11
CTGTTGGTGACTGACCCTGATCCCTCCCTG	3.61
GATTCCCCAATGCAGTACTATGCAATAACC	0.931
GGAATATTGCCCCCTAATGGTATTTATTTT	3.1
ACCTTTTGGACCACAGAGTGACCTGGTATT	3.05
GACAAAGTTCTGTCCTTTGTCCCCCACCTG	5.15
CAAGCGTCAGTCATACAGAGCTGTCACGCA	-1.32

Sequence	binding signal (log2 normalized intensity)
AGGGAGGTAAAAGTCCAACAGGGTTAAAAG	2.44
AGCCACCGCGCCCCGCCCCCAGTGCACCTT	5.01
CTTCTGTTCAGGAGTTGTCTGTCCAGTTCA	1.62
GGGAGATAAGGTGGAAAGACAAGTTGAAGC	-1.34
GAAGGAGAGAGAGGGAGAGTGGCCTTTGGA	4.12
GCCTGCTTTCCACTCCCATTACTTCTGTTT	1.48
CAGGCAGACTGGCTCCGCTGCTGCAGAGCA	-1.22
GCCACGCACACCTGGATCTTCCAGGCCTCC	-1.34
CTGAGGTATTTTTGCAATCCTCCACTCTCC	0.0425
GAGTACTGTCTCTTATCAGCCATCTCCCCA	3.14
GGTGTACAAGGAGTCTCCACTATGACCTGT	3.43
AGGGAATGAAGCTAAAAGAAGTCCAAGGAC	-0.989
GTTGCTTCCACCTATGAGTCTGTAAAGTCA	0.697
CCCAAACTTAAAAGAAGCTACTAGCAAATC	-1.29
GCAATTCCCCTGGGCCCACGGCTCTGCACA	-1.25
CTTTACATTTATTAGAACCTTATGTGAGTA	1.24
GCAGTAACGGCAGGGTTGTGCAGGACTGCG	-0.641
ATTTTATGCTTACTGCCTCAGGGAGGAGTT	-1.26
GGTTAAAATTTATCTATTGGGTACAATGTT	2.37
TCTTATGTCCCTCCTGACCTTTGGACTTGA	10.6
